# Experimental data published in PubChem BioAssay (Tox21).
# Where “and” joins values, the source holds several entries; their conditions need not be identical. Equal entries are not always repeated. Inconclusive results, whose numbers are uncertain, are shown with a selection of clear calls. For part of these data: Potencies of inconclusive entries are left out as doubtful fits. Calls of active or inactive are those of the source. Unless noted, calls follow the shape of the dose curve; as a rule, active = well fitted curve in the direction sought with a large enough effect in the repeat runs; inconclusive = weak or mixed curves; inactive = no such curve, though single readings can be large; an effect the other way counts as inactive or inconclusive.
# Experiments:
# [1] = A CellTox Green Cytotoxicity Assay to monitor cytotoxicity in HEK293 cells - 8 hour (AID 1224884); also: nearly all actives have a fitted effect of over 35% in size; also: potency is read from the fitted curve at half-maximal effect
# Method in brief: (§1)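 Real-time, in one plate: 600 HEK293 cells/well with dead-cell DNA dye, pinned compound after 5 h, 37 C incubation over 40 h; viable cells give no appreciable fluorescence.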
# [2] = qHTS RealTime-Glo MT Cell Viability Assay in HEK293 cells - 24 hour (AID 1224886); also: nearly all actives have a fitted effect of over 50% in size; also: potency is read from the fitted curve at half-maximal effect
# Method in brief: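 HEK293 cells were seeded at 600 cells/well together with NanoLuc luciferase and cell-permeant prosubstrate, preincubated 5 h at 37 C/5% CO2, then given compound in DMSO by pintool. Luminescence from viable-cell prosubstrate reduction was read repeatedly over 40 h.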
# [3] = A CellTox Green Cytotoxicity Assay to monitor cytotoxicity in HepG2 cells - 8 hour (AID 1224890); also: nearly all actives have a fitted effect of over 45% in size; also: potency is read from the fitted curve at half-maximal effect
# Method in brief: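 Cytotoxicity was tracked as dead-cell DNA fluorescence in HepG2 cells treated with test compounds at 37 C; each time-point value comes from one kinetic series spanning 0, 8, 16, 24, 32 and 40 h.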
# [4] = qHTS assay to identify small molecule antagonists of the androgen receptor (AR) signaling pathway using the MDA cell line in the presence of 0.5 nM R1881 - cell viability counter screen (AID 1259242); also: potency is read from the fitted curve at half-maximal effect; nearly all actives have a fitted effect of over 45% in size
# Method in brief: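 Cells seeded at 3,000/well and allowed 5 hr at 37C, 0% CO2 before compound transfer and R1881 (0.5 nM final) addition; 16 hr later, live-cell protease fluorescence indicated cytotoxicity.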
# [5] = qHTS assay to identify small molecule antagonists of the sonic hedgehog signaling (Shh) pathway (AID 1259369; calls by dose curve; also: nearly all actives have a fitted effect of over 45% in size; also: potency is read from the fitted curve at half-maximal effect)
# Method in brief: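 Read-out is luminescence from a firefly luciferase gene controlled by the Gli1 response element, in 3T3Gli1-Luc cells pre-incubated 4hr then exposed to compounds and conditioned medium for 24hr.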
# [6] = qHTS RealTime-Glo MT Cell Viability Assay in HEK293 cells - 8 hour (AID 1224887); also: nearly all actives have a fitted effect of over 50% in size; also: potency is read from the fitted curve at half-maximal effect
# Method in brief: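 Kinetic, non-lysing viability readout. Seed HEK293 (600/well) with reagent, incubate 5 h at 37 C/5% CO2, pin 23 nL compound in DMSO, incubate at 37 C, read luminescence at 0, 8, 16, 24, 32, 40 h.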
# [7] = A CellTox Green Cytotoxicity Assay to monitor cytotoxicity in HEK293 cells - 16 hour (AID 1224888); also: potency is read from the fitted curve at half-maximal effect; nearly all actives have a fitted effect of over 35% in size
# Method in brief: as §1
# [8] = qHTS assay to identify small molecule antagonists of the sonic hedgehog signaling (Shh) pathway - cell viability counter screen (AID 1259367); also: potency is read from the fitted curve at half-maximal effect; nearly all actives have a fitted effect of over 55% in size
# Method in brief: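 Cytotoxicity was assessed in parallel with Shh reporter activity by measuring live-cell protease fluorescence (CellTiter-Fluor) in NIH/3T3 cells stably carrying Gli1-Luc, treated with compound under conditioned medium stimulation for 23 hr plus 1 hr reagent incubation.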
# [9] = qHTS RealTime-Glo MT Cell Viability Assay in HepG2 cells - 16 hour (AID 1224885); also: potency is read from the fitted curve at half-maximal effect; nearly all actives have a fitted effect of over 50% in size
# Method in brief: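 HepG2 cells were seeded at 600 cells/well together with NanoLuc luciferase and a cell-permeant prosubstrate, preincubated 5 h at 37 C/5% CO2, then pin-dosed with compounds in DMSO. Nonlytic luminescence from viable cells was read at each time point.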
# [10] = qHTS assay to identify small molecule antagonists of the estrogen receptor alpha (ER-alpha) signaling pathway using the BG1 cell line in the presence of 0.1 nM 17-beta-estradiol - cell viability counter screen (AID 1259241); also: potency is read from the fitted curve at half-maximal effect; nearly all actives have a fitted effect of over 40% in size
# Method in brief: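 VM7Luc4E2 cells (endogenous full-length ER-alpha, 4xERE-luciferase), cultured 5 days in charcoal-stripped serum, exposed to compounds with 0.1 nM 17beta-estradiol (final) for 22 hr at 37C. Viability read in same wells as live-cell protease fluorescence after 30 min.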
# [11] = qHTS assay to identify small molecule phospholipidosis (PLD) inducers (AID 1259344; active = well fitted curve in the direction sought with a large enough effect; inconclusive = small, poorly fitted or top-dose-only effect, or another doubt; inactive = no such curve, though single readings can be large; an effect the other way counts as inactive or inconclusive; also: potency is read from the fitted curve at half-maximal effect)
# Method in brief: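 Cells (HepG2, 900 per well) attach for 4 h, receive LipidTOX Red and compound together, incubate 24 h at 37 C, are fixed 30 min with paraformaldehyde/Hoechst, then imaged at one site per well.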
# [12] = molecular target: Estrogen receptor (Homo sapiens) (UniProt P03372); assay: qHTS assay to identify small molecule antagonists of the estrogen receptor alpha (ER-alpha) signaling pathway using the BG1 cell line in the presence of 0.1 nM 17-beta-estradiol (AID 1259244); also: potency is read from the fitted curve at half-maximal effect; nearly all actives have a fitted effect of over 50% in size
# Chain of UniProt P03372 (P03372 whole entry, looked up): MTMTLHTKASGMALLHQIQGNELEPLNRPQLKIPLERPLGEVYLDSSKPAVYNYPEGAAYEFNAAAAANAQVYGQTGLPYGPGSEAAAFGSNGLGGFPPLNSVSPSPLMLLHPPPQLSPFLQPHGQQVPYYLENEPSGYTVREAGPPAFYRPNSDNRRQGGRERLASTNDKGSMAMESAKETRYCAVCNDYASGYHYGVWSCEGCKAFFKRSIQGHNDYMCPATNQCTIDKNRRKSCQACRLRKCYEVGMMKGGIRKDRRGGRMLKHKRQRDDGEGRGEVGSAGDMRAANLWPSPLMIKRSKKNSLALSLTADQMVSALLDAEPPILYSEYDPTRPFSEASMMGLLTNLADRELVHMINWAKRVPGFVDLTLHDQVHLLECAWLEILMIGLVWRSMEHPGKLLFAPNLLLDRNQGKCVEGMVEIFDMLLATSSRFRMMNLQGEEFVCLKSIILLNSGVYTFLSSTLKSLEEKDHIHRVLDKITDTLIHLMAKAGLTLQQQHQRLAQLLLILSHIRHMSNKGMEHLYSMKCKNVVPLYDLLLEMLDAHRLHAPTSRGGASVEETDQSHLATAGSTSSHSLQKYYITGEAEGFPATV
# Method in brief: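 Luciferase signal from VM7Luc4E2 ERE-reporter cells, co-dosed with test compound and 0.1 nM final 17beta-estradiol for 22 h, read with ONE-Glo.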
# [13] = qHTS assay to identify small molecule agonists of the sonic hedgehog signaling (Shh) pathway - cell viability counter screen (AID 1259366); also: nearly all actives have a fitted effect of over 50% in size; also: potency is read from the fitted curve at half-maximal effect
# Method in brief: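 NIH/3T3-derived Gli1-Luc reporter cells, 2,000 per well, received compound after 4 h and were treated about 23 h at 37C. Viability measured in the same wells by CellTiter-Fluor fluorescence after 1 h.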
# [14] = molecular target: Estrogen receptor beta (Homo sapiens) (UniProt Q92731); assay: qHTS assay to identify small molecule agonists of the estrogen receptor beta (ER-beta) signaling pathway (AID 1259377; active = well fitted activation curve with a large enough effect in the signal ratio in the repeat runs, not every such curve was filed as active; inconclusive = weak or mixed curves, or effect the other way; the % refers to the signal ratio); settings: ER-beta-UAS-bla HEK293T, beta-lactamase FRET ratio, 16 h; series mostly up to 92.4 µM
# Chain of UniProt Q92731 (Q92731 whole entry, looked up): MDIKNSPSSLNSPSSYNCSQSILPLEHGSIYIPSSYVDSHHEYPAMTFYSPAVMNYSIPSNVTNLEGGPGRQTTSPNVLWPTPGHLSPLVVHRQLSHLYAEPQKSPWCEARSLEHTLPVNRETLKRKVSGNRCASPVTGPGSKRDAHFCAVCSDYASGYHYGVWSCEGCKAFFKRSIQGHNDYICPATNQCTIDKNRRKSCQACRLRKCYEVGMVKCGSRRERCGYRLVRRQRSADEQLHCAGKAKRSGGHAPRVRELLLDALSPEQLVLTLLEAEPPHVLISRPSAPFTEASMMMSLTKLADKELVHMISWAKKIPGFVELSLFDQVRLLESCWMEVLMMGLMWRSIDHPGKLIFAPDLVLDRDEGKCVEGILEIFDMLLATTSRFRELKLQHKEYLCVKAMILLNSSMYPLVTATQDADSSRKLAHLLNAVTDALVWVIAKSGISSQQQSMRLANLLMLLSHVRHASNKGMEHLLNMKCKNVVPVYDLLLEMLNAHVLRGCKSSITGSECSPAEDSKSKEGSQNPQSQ
# Method in brief: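 ER-beta-UAS-bla HEK293T cells in medium with 2% charcoal-stripped FBS were exposed to compounds for 16 h at 37C. Beta-lactamase reporter activity was read as fluorescence after 2 h with LiveBLAzer B/G FRET substrate at room temperature.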
# Tags tell the direction and shape of the fitted curve.
smiles,measurement,setting,value
CC(C)C(OC(=O)c1ccccc1)C(C)(C)COC(=O)c1ccccc1 (stereo not given),Potency,[1],"inconclusive [activator, single point]"
same,Potency,[2],"inconclusive [cytotoxic, partial curve, poor fit]"
same,Potency,[3],inactive
CC1=CC(=O)CC(C)(C)C1,Potency,[1],"inconclusive [activator, single point]"
same,Potency,[2],"inconclusive [cytotoxic, single point]"
same,Potency,[4],"inconclusive [cytotoxic, full curve]"
same,Potency,[5],"inconclusive [inhibitor, single point] and inactive"
Cl[Si](Cl)(c1ccccc1)c1ccccc1,Potency,[1],"inconclusive [activator, single point]"
same,Potency,[6],inactive
same,Potency,[7],"inconclusive [activator, single point]"
same,Potency,[5],inactive
CCCCCCCCCCCC[N+](C)(C)CCCS(=O)(=O)[O-],Potency,[1],"inconclusive [activator, single point]"
same,Potency,[7],"inconclusive [activator, single point]"
CCCCCCCCCCCCCBr,Potency,[1],inactive
same,Potency,[2],"inconclusive [cytotoxic, single point]"
same,Potency,[6],"inconclusive [cytotoxic, single point]"
C/C=C/C(=O)N(CC)c1ccccc1C,Potency,[1],inactive
C[C@]12CC[C@@H]3c4ccc(O)cc4CC[C@H]3[C@@H]1CC[C@H]2O,Potency,[1],"inconclusive [activator, single point]"
same,Potency,[6],"inconclusive [cytotoxic, full curve]"
same,Potency,[7],"inconclusive [activator, single point]"
same,Potency,[8],"inconclusive [cytotoxic, partial curve, poor fit]"
same,Potency,[5],active: 4.94 µM and active: 4.86 µM
Cc1c(-c2ccc(O)cc2)n(Cc2ccc(OCCN3CCCCCC3)cc2)c2ccc(O)cc12,Potency,[1],"inconclusive [activator, single point]"
same,Potency,[9],active: 23.9 µM
same,Potency,[7],active: 23.9 µM
same,Potency,[3],"inconclusive [activator, partial curve, poor fit]"
same,Potency,[10],"inconclusive [cytotoxic, single point]"
same,Potency,[4],active: 29.8 µM
same,Potency,[11],"inconclusive [activator, full curve, poor fit]"
Fc1ccc(C(c2ccc(F)cc2)N2CCN(C/C=C/c3ccccc3)CC2)cc1,Potency,[1],"inconclusive [activator, single point]"
same,Potency,[2],"inconclusive [cytotoxic, partial curve]"
same,Potency,[6],"inconclusive [cytotoxic, partial curve]"
same,Potency,[4],"inconclusive [cytotoxic, single point]"
same,Potency,[11],"inconclusive [activator, partial curve, poor fit]"
same,Potency,[5],inactive
Brc1nc2ccccc2s1,Potency,[1],inactive
CC(C)COC(=O)C(C)C,Potency,[1],inactive
CC(=O)S[C@@H]1CC2=CC(=O)CC[C@]2(C)[C@H]2CC[C@@]3(C)[C@@H](CC[C@@]34CCC(=O)O4)[C@H]12,Potency,[1],"inconclusive [activator, partial curve, poor fit]"
same,Potency,[9],"inconclusive [cytotoxic, partial curve]"
same,Potency,[6],"inconclusive [cytotoxic, partial curve, poor fit]"
same,Potency,[12],"inconclusive [inhibitor, full curve, poor fit]"
same,Potency,[13],"inconclusive [rising, partial curve]"
same,Potency,[5],inconclusive [inhibitor]
same,Potency,[14],inactive
COc1cc(C)c(Cc2cnc(N)nc2N)cc1OC,Potency,[1],inactive
same,Potency,[2],inactive
same,Potency,[6],inactive
same,Potency,[13],inactive
same,Potency,[5],inconclusive [inhibitor]
CN[C@@H]1[C@H](O)[C@H](NC)[C@H]2O[C@@]3(O)C(=O)C[C@@H](C)O[C@H]3O[C@@H]2[C@H]1O,Potency,[1],inactive
same,Potency,[6],inactive
Cc1ccc(C(=O)Oc2ccc(C(O)CNC(C)(C)C)cc2OC(=O)c2ccc(C)cc2)cc1 (stereo not given),Potency,[1],active: 23.9 µM
same,Potency,[2],"inconclusive [cytotoxic, single point]"
same,Potency,[6],"inconclusive [cytotoxic, single point]"
same,Potency,[13],"inconclusive [cytotoxic, single point]"
Oc1cc(Cl)cc(Cl)c1Cl,Potency,[1],"inconclusive [activator, single point]"
same,Potency,[6],"inconclusive [cytotoxic, single point]"
same,Potency,[7],"inconclusive [activator, single point]"
same,Potency,[12],"inconclusive [inhibitor, single point]"
same,Potency,[5],active: 31.4 µM
